The text below walks through data of the supplement of paper PMC11417369.

Some of the results follow.

This assay has as its system PfSIP2 AP2 domain 1 (GST-tagged). The experiment in a line: gcPBM binding intensity (ln(normalized median fluorescence intensity)); higher = stronger DNA binding. An outline of the steps: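 Probes on an Agilent 4 × 180k array were primer-extended, double-stranded and 36 bp long, taken from intergenic genomic regions, with negative controls added. GST-tagged P. falciparum DNA-binding domains from E. coli, about 25 μg on average, were applied to the array for 1 h in 1× PBS containing 1% milk, 0.2 mg/ml BSA, 0.5% salmon testes DNA and 0.03% Triton X-100. Binding intensity, obtained after Alexa488 anti-GST antibody detection and a 488 nm scan, is the highest Masliner-normalised natural-log median intensity across replicate spots of either probe orientation.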
Turning to “TACCATATTTCTTCAAGTACGCATTATGTTAAAAAG [XGTACX_site345]”, the “gcPBM binding intensity (ln)” value was 7.24.

Consider “TACATATATTTTTATACATGCATAACTTAGGACTTT [TGCATGCA_site113]”, for which the “gcPBM binding intensity (ln)” value worked out at 7.07.

In the case of “TCCTTTTTGAAATGTTGTACTTTTTTTATCTTTCAT [XGTACX_site953]”, the “gcPBM binding intensity (ln)” value turned out to be 7.12.

For “ATTTTTATTCAGTTCACACACGCTTTAATATTATAT [CACACA_site3465]”, the “gcPBM binding intensity (ln)” value amounted to 7.1.

As for “AAAATATTTTTATAATGTACATATAGTTGTATTTGT [XGTACX_site8724]”, the “gcPBM binding intensity (ln)” value was 7.43.

For “ATATATATTTAACAATGTACTTATTCAGAGAATAAT [XGTACX_site574]”, the “gcPBM binding intensity (ln)” value worked out at 7.04.

Turning to “AAGTTGAAATAATGTGCACACATTTTTTTTTTTTTT [CACACA_site3368]”, the “gcPBM binding intensity (ln)” value stood at 8.43.

“CCCTTAATATAAAGCACACATATATATAATATATAT [CACACA_site4439]”: the “gcPBM binding intensity (ln)” value was determined as 7.21.

Consider “ATTAATAAAAAATTTTAAAAAATAAATAAAATAAAA [TGCATGCA_negctrl_site113]”, for which the “gcPBM binding intensity (ln)” value amounted to 6.74.

As to “ATAATAAATAAAATAACACACATATATAAATATATA [CACACA_site170]”, the “gcPBM binding intensity (ln)” value was determined as 6.98.

Consider “ATTATGTGTCCACATGTAAGCTATCTTACTTATATA [CACACA_negctrl_site1227]”, for which the “gcPBM binding intensity (ln)” value was 6.98.

For the sequence “CATATTTGTGGACACACACACATATTTATATATATA [CACACA_site5887]”, the “gcPBM binding intensity (ln)” value is 7.93.

For the sequence “ATAGTTACACAATGGTGTACAAGTCAATATATTTCT [XGTACX_site4614]”, the “gcPBM binding intensity (ln)” value came to 6.95.

Regarding “TACAAAAAAATAAAAAAAATTAAATAAATAAATATA [CACACA_negctrl_site45]”, the “gcPBM binding intensity (ln)” value worked out at 6.76.

With “TATCCTTATATTTGCACACACACACTAGAAAATGAA [CACACA_site4714]”, the “gcPBM binding intensity (ln)” value turned out to be 7.69.

For the sequence “AAAAAAAAAAAAAAAAAAAACGAAAAACATCAAAGA [TGCATGCA_negctrl_site78]”, the “gcPBM binding intensity (ln)” value amounted to 8.1.

With “ACTAAAAAATATATATGTACATAATAATATATTATT [XGTACX_site1260]”, the “gcPBM binding intensity (ln)” value is 7.36.

For the sequence “ATTTATACTTATGTATGTACATATATACATATGTAT [XGTACX_site3979]”, the “gcPBM binding intensity (ln)” value came out at 7.07.

As to ATAATAAAATAACTAGTGCATATTCAAAGGATTCAG, the “gcPBM binding intensity (ln)” value worked out at 8.26.

Consider “TCCATATATGCCTTATGTACATATACCAAATTAACC [XGTACX_site6513]”, for which the “gcPBM binding intensity (ln)” value is 7.28.

For the sequence “TTTGGCTAGTTAGGCCGTACATGTAAATAATATATA [XGTACX_site1138]”, the “gcPBM binding intensity (ln)” value amounted to 7.13.

With “AATGAATGTAAGAAAATACACACTAGTATAGTAACA [CACACA_site1955]”, the “gcPBM binding intensity (ln)” value amounted to 6.87.

With “TTGGAAAAAGTGAAATGTACATATATATTTATTATT [XGTACX_site6946]”, the “gcPBM binding intensity (ln)” value was found to be 6.99.

Take AAAGGATTTATACTAGTGCAAAAATATAAAAATATA: the “gcPBM binding intensity (ln)” value is 8.04.

On to “AATAATAAAGTGAACACACACATATAACATCTATAT [CACACA_site7868]”, for which the “gcPBM binding intensity (ln)” value came to 6.97.

Turning to “GAAGTTTTTTAAAGATGTACTTTTTAAAAATAATCT [XGTACX_site263]”, the “gcPBM binding intensity (ln)” value was determined as 7.2.

In the case of “AATATAAATACTCCTACACACATATATATATATATA [CACACA_site3010]”, the “gcPBM binding intensity (ln)” value was found to be 9.39.

For “GACACAAAAAAATAATAATAATAATAATAATAAATA [XGTACX_negctrl_site145]”, the “gcPBM binding intensity (ln)” value turned out to be 6.82.

In the case of “ACAAATACAAAAAAAGGTACACACATAATATATTTA [XGTACX_site5515]”, the “gcPBM binding intensity (ln)” value turned out to be 7.04.

For the sequence “TTTGTTTTTAATTTCGCACACACCTTGTGGAAAAAA [CACACA_site577]”, the “gcPBM binding intensity (ln)” value stood at 7.37.

For “AAATATTTTATACTTGCACACAAAATATATTAAAAT [CACACA_site8606]”, the “gcPBM binding intensity (ln)” value was 7.33.

Consider “TTCTTATAAATATACACACACAAAATATCTACAATG [CACACA_site6487]”, for which the “gcPBM binding intensity (ln)” value came out at 7.09.

“TGTGTAAGATCTTGGATGATGATAAGAATCTACTAG [CACACA_negctrl_site1167]”: the “gcPBM binding intensity (ln)” value was 6.88.

Regarding “CCTTAAAATAAGATATGTACGCAAAGGAAAACAAAG [XGTACX_site6057]”, the “gcPBM binding intensity (ln)” value is 7.62.

Regarding “TTATAAGATTTATGTACACACATATACTCACCTCTA [CACACA_site729]”, the “gcPBM binding intensity (ln)” value was determined as 7.04.

Turning to “TGCTATAATTTATATACACACAAATATATACGCATA [CACACA_site4096]”, the “gcPBM binding intensity (ln)” value came to 7.09.

Regarding TATGTATGTGCTTGTGCGCACCGATAATATAGCCAA, the “gcPBM binding intensity (ln)” value was 9.96.

Turning to “TCTCATAGTAGACACACACACACACGCACATATATA [CACACA_site6916]”, the “gcPBM binding intensity (ln)” value turned out to be 7.2.

Turning to “ACATAAGACACAAATACACACAAAAATATGTAACAA [CACACA_site7836]”, the “gcPBM binding intensity (ln)” value is 7.07.

For the sequence “TTTTATGAAAAGTATTGTACGTATAATTTATATGTA [XGTACX_site1639]”, the “gcPBM binding intensity (ln)” value is 7.04.

Consider “TATATAAATAGACACACACACACCTTATAATTACTA [CACACA_site7828]”, for which the “gcPBM binding intensity (ln)” value was 7.02.

For the sequence “ATAATAATTAACCTATGTACATAGGAAAGTCATAAA [XGTACX_site4387]”, the “gcPBM binding intensity (ln)” value was determined as 7.06.

For “AAAAAAAAAAAACACACACACACATACACATACATA [CACACA_site2858]”, the “gcPBM binding intensity (ln)” value is 7.25.

Consider “GAAGAAAAATAAAAAGTGCAAAAAAAGTAAAAATTT [GTGCAC_site9897]”, for which the “gcPBM binding intensity (ln)” value is 8.02.
